# Experimental data published in patent US20230218566A1, “Composition and Method for Treating Chronic Pain” (Zelira Therapeutics Operations Pty Ltd, priority 2020, published 2023).
# Assay: Pharmacokinetics of THC and CBD after oral MC formulation (Example 3)
# Settings: high fat meal (about 60 g fat) 30 minutes before 2.5 mg dose versus 12 hour fast
row,SMILES,effect of high fat meal on t½
1,"C=C(C)[C@@H]1CCC(C)=C[C@H]1c1c(O)cc(CCCCC)cc1O [CBD, cannabidiol]",unchanged
2,"CCCCCc1cc(O)c2c(c1)OC(C)(C)[C@@H]1CCC(C)=C[C@@H]21 [THC, Δ^9-tetrahydrocannabinol]",unchanged
